# Experimental data taken from the supplement of paper PMC11417369.
# This is one part of the list.
# System: PfHDP1 homeodomain (GST-tagged)
# Assay: gcPBM binding intensity (ln(normalized median fluorescence intensity)); higher = stronger DNA binding
# Summary of the method: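 DNA-binding domains from P. falciparum, fused to GST and produced in E. coli, were put on an Agilent 4 × 180k double-stranded probe array for 1 h in 1× PBS holding 1% milk, 0.2 mg/ml BSA, 0.5% salmon testes DNA and 0.03% Triton X-100. Probes were primer-extended, 36 bp long and drawn from intergenic genomic regions, with negative controls included. After Alexa488 anti-GST antibody detection and a 488 nm scan, binding intensity was set as the highest Masliner-normalised natural-log median intensity across replicate spots of either probe orientation.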
row,Sequence,gcPBM binding intensity (ln)
1,CCACATTAAAAAAAAACACACATATATTATATATAT [CACACA_site1155],7.19
2,AAAATGACATAATGGGGAATAGACATATACATAAAT [CACACA_negctrl_site1669],6.55
3,AATACATGAATATGTAGTACAGAAAAAAAAAATATA [XGTACX_site1945],6.48
4,AATTAATGGCTAAAGGTGCACAATATATATATTACA,9.84
5,AAAATAAAAAAAAACACACACATACAAGCATATATA [CACACA_site1585],6.84
6,AAAAAAAAATTTAAGGGTACATACAAATATATATAT [XGTACX_site5078],8.02
7,TCCCTTCATCTTTTATGTACTAAAAAATTGAATAAT [XGTACX_site2172],6.67
8,TAATACGAATGAGGCACACACCTAGTATACATGCTT [CACACA_site6438],6.26
9,AATTAAAATTTTTGAAGTACACTCAAAATAAGTTAT [XGTACX_site4490],6.23
10,AATTAACCCTAATTTTGTACATATTCCTTTTCTCAT [XGTACX_site46],7.07
11,AATAAAAATAGGAATACGCACACGATGATTAATTTA [CACACA_site1836],6.43
12,TATACCACACGATATACACACTTGTAGACATCTTTT [CACACA_site6232],6.68
13,GTTACTATGATTAATGCATGCAAATACCAAAAAAAA [TGCATGCA_site590],6.82
14,TGGAATAATCCGCGTACACACATATATATATTAAGA [CACACA_site4253],6.74
15,TTATATTCTAGAGACACATGCGATTTTTTATTTTAT [TGCATGCA_site649],6.19
16,TTTGCCATATGACACACACACATGTAAACCCCCTTT [CACACA_site6873],7.1
17,TAATACAAAAACAATGTTCTTTCAAACATAAACATA [CACACA_negctrl_site1628],6.13
18,TGTTAATTCTTAAGAATTTCCATAATTTCTTCTTTT [CACACA_negctrl_site1065],6.33
19,TATTTATAAAAAAATACATGCATTTTTTTTTTTTTT [TGCATGCA_site65],6.26
20,TATTTTTATTGGTACTGTACCTATTTAGAAATACAT [XGTACX_site6663],6.36
21,ATGATTTCATTTGAGAGTACGTAAAAATAATACGTA [XGTACX_site4958],5.94
22,CTTTTGAACAGTTCATGTACTCAATTTTTTAATAGT [XGTACX_site6498],6.36

row,Sequence,gcPBM binding intensity (ln)
1,TAATACCTATGGTATAGTACGTATTATTTTATAGAG [XGTACX_site2078],6.05
2,TATATATATATATATTTTTTTTTTTTATGCACATGG [CACACA_negctrl_site1573],10.1
3,TTTTTTTTTTTGAAATGTACATTCCAAAAACTGATA [XGTACX_site1495],6.43
4,GAGAAAAGGAAATTCACACATATAAAGAAAGATCTA [CACACA_site5420],6.03
5,ATTGATACATCCAATACACACTACATATAATGATGT [CACACA_site8561],6.46
6,TTTTTTATATATACATATATATAAATATATATAACT [GTGCAC_negctrl_site385],6.07
7,GTATGTATGTATATATGTACACATTATTATTTAATG [XGTACX_site5802],7.06
8,ATATTAATAATATATGCATGCATTAACATATTGAAA [TGCATGCA_site951],6.7
9,GTTCATATCTTTTGAGCACACATATATATATATAAA [CACACA_site9099],7.13
10,TTTAGCTATTATAGCTGTACAATGATAAAATAAATT [XGTACX_site6318],6.38
11,ATGATTATAATTTAAAATATTTTACATAACCATTTC [GTGCAC_negctrl_site297],6.59
12,ATAAGTAAAAATAAAAAAAAAATATATATATATATA [CACACA_negctrl_site1816],9.31
13,AATGAATCCTTATATACACACATTATTATATTATAT [CACACA_site3108],7.23
14,ATTAGCAACATTGATAAATATAAACACACGAAAACA [TGCATGCA_negctrl_site97],7.19
15,TTTTTGTTCTATATGGTGCATGTTTATATTCGTATT,8.47
16,CATGTTTATGCCGTTTGTACATATATATCTAAAAAA [XGTACX_site4336],6.68
17,CACGTATATATATATACACACACATATATATATGTA [CACACA_site7948],7.07
18,ATACCATAAATATTGTGTACATAAATATGTTAGTAA [XGTACX_site6077],6.45
19,TTTTAGAAATTTACTAAACTTTATATAACTATTGAA [TGCATGCA_negctrl_site280],5.93
20,ATTATTAACATATATATACACACGAAAAAATTATAT [CACACA_site625],6.96
21,TAATGAAATATTATGTGTACTTAAAAATTATTAAAT [XGTACX_site5261],6.4
22,AGAATTATTTTATGTTTGCACTTTTTTTTTCTATAA [GTGCAC_site9876],7.49

row,Sequence,gcPBM binding intensity (ln)
1,CTATAATATGGTATTACACACTGTTATAAGTATGGC [CACACA_site7068],6.41
2,TATATTTCTTCTATAACATGCAGATATATGAAAATA [TGCATGCA_site971],6.22
3,TATAAATAGAGACACACACACATATAAATAAATATT [CACACA_site7854],6.84
4,ATATATTTTTTGAATACACACATATTATCTGTAATA [CACACA_site4826],6.45
5,TATTCCTAATTGACAACACACACAACAAAAAAGGGA [CACACA_site8350],7.24
6,AAAAATATAAAAATAGCACACATATATACATATATA [CACACA_site7901],6.67
7,TATGGAGAAATAAATAGTACGTATTTTATTTAAAAA [XGTACX_site3129],6.47
8,CTTGCAAAAAGTATATGTACATATATATATATATAT [XGTACX_site5792],9.55
9,TATAAAAATATTGAAAGTACTTATTAAAATATTATT [XGTACX_site3701],6.07
10,ATGTTCGATGATAAATGTACAAAAATAATGGAAGTA [XGTACX_site1916],7.41
11,TTTCCTAGCACATGCACACAAAAAAAAAAAAAAAAA [CACACA_site1404],8.18
12,CGAACACAAACACAAACACACATCAGATATAAATAT [CACACA_site6736],6.55
13,TGTTTGCTTATGTGTTAAATATATATATATATATAT [TGCATGCA_negctrl_site218],9.25
14,ATTTTAGGAAAAAAAAGTACATATAATTTTTTATAT [XGTACX_site6954],6.06
15,TTTTTTTTGATATATACACACAATAAATAAATATAA [CACACA_site7400],6.63
16,ATTTATTATTATATCACACATAATATATTAAATGAT [CACACA_site5821],6.41
17,TGTCACTACAAATGAGTGCATTAAATAATTTGGAAA,9.4
18,CCATAGATATTTTATACACACATATAATATATTAAG [CACACA_site4363],6.75
19,ATATGCAAAGAGTATAATCAAAATGTAAATAAATAA [GTGCAC_negctrl_site141],6.73
20,AATATTATTTATATTTGTACACAGTAATATAAAATA [XGTACX_site4884],6.25
21,AAAAATAAAGAAACAGGTACGCATATATTAAGATAT [XGTACX_site8097],6.63
22,AATATATTCCACATGTGTACATATATATATATATAT [XGTACX_site8006],9.29

row,Sequence,gcPBM binding intensity (ln)
1,TTTCCTTCTACAAAAAATTTTATCAAGAGGAAGTAC [CACACA_negctrl_site926],6.55
2,TGGGCGTCATAATGAACACACAATTATATTATGACT [CACACA_site3910],6.06
3,TTACACAAATAGCTGCATTTATAAAATACAATTAAA [CACACA_negctrl_site241],6.18
4,AAATATATATATTTACGTACATATATACAAATAGAG [XGTACX_site6067],6.98
5,ATATATATATATTTATGTACGAATATGTTTAATTTA [XGTACX_site3986],8.78
6,TTTTGTCAATTTTAGATTTTTCAATACATGGATATT [CACACA_negctrl_site319],6.1
7,ATATATATAATAATATGTACGGAAAAAGCTTAAGCT [XGTACX_site5661],6.9
8,TTATAAAGAACACAGACACACAAAGAAAGAACCAAT [CACACA_site4175],6.91
9,CACAAATAAATACATACACACATATATACTCATATA [CACACA_site4379],6.62
10,GAAAATAAAAAAAATAAAAAAAATAAAAAAAATTAT [XGTACX_negctrl_site443],6.24
11,TTTTGTAACCTATGCACGCACACAAGAAAAAAACAA [CACACA_site3776],9.11
12,TAAATATCTAAAGACTGTACAATTAAATATAAACAT [XGTACX_site1450],6.48
13,AATACATATAAAAGTACACACACACCCATATATATA [CACACA_site8220],7.05
14,ATAGAATACATATATGAACACACAGAGTTTTAAAAA [CACACA_site8879],6.7
15,TATATTATATATATGTGTACATATAAATGTAACAAA [XGTACX_site5025],6.45
16,TTTTTTTTTTGATGTTGTACATATATACTATATAAT [XGTACX_site1332],6.38
17,AATATATATCATCACACACACATACATAAATATATA [CACACA_site184],6.87
18,AGTTTATTTGTAAAAAGTACATATTTAAGAAAACTT [XGTACX_site2318],6.26
19,AAATTTGGCAAACACACACACACACCCACACCCACA [CACACA_site8095],6.68
20,TTCTAACTCTAACAAGTGCAATATATATACATAATA,8.84
21,TATATATATATATATAGTACATATTAATTAATTTAT [XGTACX_site8198],9.23
22,ATATATTTTAAATATATTATTATTGCATTGTGAAAA [TGCATGCA_negctrl_site106],7.29
